Source: the supplement of paper PMC10441789
The list shows a part of the results. Antibody binding of pooled human sera (four to six donors per pool; dilution not stated) to peptides of the Trypanosoma cruzi antigen TSSA on microarrays. Quantile-normalised fluorescence in arbitrary units, mean of duplicate arrays; higher = more binding. No active / inactive call. The uninfected pools are read here as the healthy donors of the same country. The strongest signals lie near the top of the scale (about 60,000).

Each sequence was assayed on pooled sera of chronic Chagas disease patients, USA (assay: antibody binding signal (normalised fluorescence) (arbitrary fluorescence units); higher = stronger serum antibody binding to peptide).
Protocol: (§1)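 Microarray of 15-residue peptides over residues 30-55 of Trypanosoma cruzi TSSAII, each with 1 to 10 substitutions at naturally variable positions, probed with one serum pool per country.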

Sequence | antibody binding signal
PSGKDKKTAAGETPS | 5170
DKKTATGGAPSPSGA | 970
TDKKAAAGGTPSQPG | 1440
GTDNKAATGETPSQS | 14100
KAATGGTPSQPGASS | 217
EKKTAAGGAPSPSGA | 858
KENKAATGEAPSQSG | 25800
PSGTEKKAATGEAPS | 25100
NKTATGEAPSPSGAS | 20500
SGTEKKAATGEAPSQ | 25200
PSGKDNKAATGEAPS | 24000
PSGTDNKAAAGGAPS | 951
GTDNKTATGGAPSQS | 567
PSGKEKKPATGETPS | 18100
TENKAAAGETPSQPG | 3300
GTENKPATGGTPSQP | 2900
TDKKAATGGTPSPSG | 1170
NKTAAGEAPSQSGAS | 5050
TEKKTATGETPSPSG | 8080
GTDNKTATGGTPSQP | 372

Sequence | antibody binding signal
TPPSGKENKAAAGEA | 3980
GKENKTAAGGAPSQP | 8240
GTEKKAAAGGTPSQS | 1630
KDNKAAAGEAPSPSG | 11200
DKKPAAGEAPSPPGA | 15900
GKDNKTAAGETPSPP | 2650
PSGTDNKAAAGETPS | 733
EKKTAAGGAPSPPGA | 1150
KDNKPATGEAPSQPG | 40300
SGTDKKAATGETPSQ | 12100
STPPSGTDNKPAAGG | 42000
EKKPATGGAPSQPGA | 1750
TDKKAATGETPSQPG | 10900
TPPSGKDNKTATGGT | 2790
NKPATGEAPSPSGAS | 40300
TPPSGTDNKAATGEA | 11500
TDNKAATGGTPSPSG | 244
DKKPATGGTPSPSGA | 697
TPPSGKDKKTAAGET | 1220
DKKTAAGETPSPSGA | 2460

Each sequence was assayed on pooled sera of uninfected people, Argentina in the same assay as above.
Protocol: as §1

Sequence | antibody binding signal
PSGKDKKTAAGETPS | 214
DKKTATGGAPSPSGA | 421
TDKKAAAGGTPSQPG | 222
GTDNKAATGETPSQS | 88.7
KAATGGTPSQPGASS | 468
EKKTAAGGAPSPSGA | 252
KENKAATGEAPSQSG | 269
PSGTEKKAATGEAPS | 843
NKTATGEAPSPSGAS | 429
SGTEKKAATGEAPSQ | 560
PSGKDNKAATGEAPS | 308
PSGTDNKAAAGGAPS | 238
GTDNKTATGGAPSQS | 368
PSGKEKKPATGETPS | 602
TENKAAAGETPSQPG | 92
GTENKPATGGTPSQP | 484
TDKKAATGGTPSPSG | 245
NKTAAGEAPSQSGAS | 455
TEKKTATGETPSPSG | 374
GTDNKTATGGTPSQP | 466

Sequence | antibody binding signal
TPPSGKENKAAAGEA | 2700
GKENKTAAGGAPSQP | 328
GTEKKAAAGGTPSQS | 181
KDNKAAAGEAPSPSG | 376
DKKPAAGEAPSPPGA | 136
GKDNKTAAGETPSPP | 281
PSGTDNKAAAGETPS | 156
EKKTAAGGAPSPPGA | 207
KDNKPATGEAPSQPG | 1260
SGTDKKAATGETPSQ | 472
STPPSGTDNKPAAGG | 1440
EKKPATGGAPSQPGA | 375
TDKKAATGETPSQPG | 292
TPPSGKDNKTATGGT | 295
NKPATGEAPSPSGAS | 889
TPPSGTDNKAATGEA | 572
TDNKAATGGTPSPSG | 149
DKKPATGGTPSPSGA | 307
TPPSGKDKKTAAGET | 231
DKKTAAGETPSPSGA | 159

What follows are sequences tested on pooled sera of uninfected people, Bolivia in the same assay as above.
Protocol: as §1

Sequence | antibody binding signal
PSGKDKKTAAGETPS | 466
DKKTATGGAPSPSGA | 262
TDKKAAAGGTPSQPG | 103
GTDNKAATGETPSQS | 555
KAATGGTPSQPGASS | 103
EKKTAAGGAPSPSGA | 731
KENKAATGEAPSQSG | 192
PSGTEKKAATGEAPS | 309
NKTATGEAPSPSGAS | 683
SGTEKKAATGEAPSQ | 528
PSGKDNKAATGEAPS | 389
PSGTDNKAAAGGAPS | 696
GTDNKTATGGAPSQS | 709
PSGKEKKPATGETPS | 691
TENKAAAGETPSQPG | 560
GTENKPATGGTPSQP | 1570
TDKKAATGGTPSPSG | 107
NKTAAGEAPSQSGAS | 945
TEKKTATGETPSPSG | 241
GTDNKTATGGTPSQP | 547

Sequence | antibody binding signal
TPPSGKENKAAAGEA | 1820
GKENKTAAGGAPSQP | 99.5
GTEKKAAAGGTPSQS | 398
KDNKAAAGEAPSPSG | 1470
DKKPAAGEAPSPPGA | 186
GKDNKTAAGETPSPP | 335
PSGTDNKAAAGETPS | 720
EKKTAAGGAPSPPGA | 781
KDNKPATGEAPSQPG | 737
SGTDKKAATGETPSQ | 237
STPPSGTDNKPAAGG | 811
EKKPATGGAPSQPGA | 1230
TDKKAATGETPSQPG | 280
TPPSGKDNKTATGGT | 411
NKPATGEAPSPSGAS | 1350
TPPSGTDNKAATGEA | 461
TDNKAATGGTPSPSG | 245
DKKPATGGTPSPSGA | 537
TPPSGKDKKTAAGET | 478
DKKTAAGETPSPSGA | 214
